# Test results: the supplement of paper PMC4604168 (melanoma cell lines)
# The list shows a part of the results. Many values rest on one well or one pass, so single values are uncertain.
# Key:
# Test in all cases: cell count relative to DMSO control; melanoma cells; higher = more viable cells
# Settings in all cases: library dose: low library concentration; 72 h
# [1] = system: MZ2-MEL
# [2] = system: MeWo
# [3] = system: RPMI7951
# [4] = system: RVH-421
# [5] = system: SkMel28
# [6] = system: SkMel2
# [7] = system: SkMel30
# [8] = system: SkMel5
# [9] = system: UACC257
# [10] = system: UACC62
# 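Also: cell number obtained by counting DAPI-stained nuclei in high-throughput microscope images with image analysis software, screen run in 1,536-well plates.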
SMILES,cell count [1],cell count [2],cell count [3],cell count [4],cell count [5],cell count [6],cell count [7],cell count [8],cell count [9],cell count [10]
"Nc1ncn([C@H]2C[C@H](O)[C@@H](CO)O2)c(=O)n1 [decitabine] + COc1ccc(-c2ccc3c(N4CCOCC4)nc(N4C[C@@H](C)O[C@@H](C)C4)nc3n2)cc1CO [KU0063794] (first compound 0.1 µM, partner dose 0.02 µM)",89.6%,103%,92.3%,103%,66.3%,93.8%,94.7%,86.9%,83.1%,99.1%
"Nc1ncn([C@H]2C[C@H](O)[C@@H](CO)O2)c(=O)n1 [decitabine] + NC(=O)Nc1cc(-c2cccc(F)c2)sc1C(=O)N[C@H]1CCCNC1 [AZD7762] (first compound 0.1 µM, partner dose 0.02 µM)",93.1%,86.2%,83%,107%,96.1%,116%,149%,110%,121%,92.5%
"Nc1ccn([C@@H]2O[C@H](CO)[C@@H](O)C2(F)F)c(=O)n1 [gemcitabine] + NC(=O)Nc1cc(-c2cccc(F)c2)sc1C(=O)N[C@H]1CCCNC1 [AZD7762] (first compound 0.0004 µM, partner dose 0.02 µM)",99.4%,86.1%,74.3%,123%,87.4%,102%,122%,92.2%,111%,77.6%
"Nc1ncn([C@H]2C[C@H](O)[C@@H](CO)O2)c(=O)n1 [decitabine] + O=C1NC(=O)/C(=C/c2ccc(-c3ccc(F)cc3O)o2)S1 [AS252424] (first compound 0.1 µM, partner dose 1 µM)",84.2%,88.7%,82%,85.7%,74.6%,91.7%,79.4%,107%,111%,65.1%
"CC(=O)c1c(C)c2cnc(Nc3ccc(N4CCNCC4)cn3)nc2n(C2CCCC2)c1=O [palbociclib] + COC(=O)c1sccc1S(=O)(=O)Nc1ccc(Nc2ccccc2)cc1OC [GSK0660] (first compound 0.04 µM, partner dose 1 µM)",77.6%,77%,72.1%,89.3%,80.9%,79.8%,62.4%,68.7%,91.8%,78.4%
"Nc1ncn([C@H]2C[C@H](O)[C@@H](CO)O2)c(=O)n1 [decitabine] + C=CCNC1=C2C[C@@H](C)C[C@H](OC)[C@H](O)[C@@H](C)/C=C(\C)[C@H](OC(N)=O)[C@@H](OC)/C=C\C=C(/C)C(=O)NC(=CC1=O)C2=O [Tanespimycin] (first compound 0.1 µM, partner dose 0.002 µM)",81.7%,96%,62.8%,72.4%,86.9%,94.5%,97.1%,,,80.6%
"Nc1ccn([C@@H]2O[C@H](CO)[C@@H](O)C2(F)F)c(=O)n1 [gemcitabine] + CC(C)CCN1c2nc(Nc3cc(F)c(O)c(F)c3)ncc2N(C)C(=O)C1C [BID1870] (first compound 0.0004 µM, partner dose 0.2 µM)",95.3%,100%,114%,82%,97.6%,96.6%,87.6%,96.6%,96.3%,87.9%
"Nc1nc(F)nc2c1ncn2[C@@H]1O[C@H](CO)[C@@H](O)[C@@H]1O [fludarabine] + C[C@@H]1CCN(C(=O)CC#N)C[C@@H]1N(C)c1ncnc2[nH]ccc12 [CP690550] (first compound 0.2 µM, partner dose 1 µM)",97.5%,37.2%,97.9%,117%,74.9%,5.47%,18.4%,52.7%,96.7%,88.7%
"Nc1ncn([C@H]2C[C@H](O)[C@@H](CO)O2)c(=O)n1 [decitabine] + N#Cc1c(O)c2c(-c3ccc(-c4ccccc4O)cc3)csc2[nH]c1=O [A769662] (first compound 0.1 µM, partner dose 2 µM)",92.9%,108%,80.4%,109%,94.8%,98.3%,113%,102%,130%,79.8%
"Nc1nc(F)nc2c1ncn2[C@@H]1O[C@H](CO)[C@@H](O)[C@@H]1O [fludarabine] + O=C(O)C(=O)Nc1sc2c(c1C(=O)O)CCNC2 [TCS401] (first compound 0.2 µM, partner dose 1.66667 µM)",107%,46.5%,104%,75.1%,80.5%,7.57%,28.4%,65.1%,85.6%,77.6%
"Nc1nc(F)nc2c1ncn2[C@@H]1O[C@H](CO)[C@@H](O)[C@@H]1O [fludarabine] + CC(C)(C)c1cnc(CSc2cnc(NC(=O)C3CCNCC3)s2)o1 [SNS-032] (first compound 0.2 µM, partner dose 0.01 µM)",105%,22.4%,73.2%,91.4%,64.4%,4.48%,30.2%,58.1%,69.1%,88.6%
"Nc1ccn([C@@H]2O[C@H](CO)[C@@H](O)C2(F)F)c(=O)n1 [gemcitabine] + OCCn1cc(-c2cnc3nnn(Cc4ccc5ncccc5c4)c3n2)cn1 [PF04217903] (first compound 0.0004 µM, partner dose 1 µM)",88.6%,100%,76.6%,74.6%,95%,101%,98.5%,103%,103%,90%
"Nc1ncn([C@H]2C[C@H](O)[C@@H](CO)O2)c(=O)n1 [decitabine] + CC(C)(C)c1cnc(CSc2cnc(NC(=O)C3CCNCC3)s2)o1 [SNS-032] (first compound 0.1 µM, partner dose 0.01 µM)",87.5%,91.7%,94%,86.9%,73%,95.9%,96.5%,98.9%,61.5%,85.1%
"CC(=O)O[C@@]12CO[C@@H]1C[C@H](O)[C@@]1(C)C(=O)[C@H](O)C3=C(C)[C@@H](OC(=O)[C@H](O)[C@@H](NC(=O)OC(C)(C)C)c4ccccc4)C[C@@](O)([C@@H](OC(=O)c4ccccc4)[C@H]21)C3(C)C [Docetaxel] + Cn1cc(/C=C2\C(=O)Nc3cccnc32)c2ccccc21 [GW441756] (first compound 0.0001 µM, partner dose 0.4 µM)",48%,34.8%,29%,91.1%,41.9%,27%,24.1%,76.4%,45.4%,39.9%
"Nc1nc(F)nc2c1ncn2[C@@H]1O[C@H](CO)[C@@H](O)[C@@H]1O [fludarabine] + COc1ccc(-c2ccc3c(N4CCOCC4)nc(N4C[C@@H](C)O[C@@H](C)C4)nc3n2)cc1CO [KU0063794] (first compound 0.2 µM, partner dose 0.02 µM)",113%,36.1%,86%,101%,65.3%,5.37%,17.9%,55.3%,85.2%,87.2%
"CC(=O)c1c(C)c2cnc(Nc3ccc(N4CCNCC4)cn3)nc2n(C2CCCC2)c1=O [palbociclib] + COc1cc2ncnc(Nc3ccc(Oc4ccccc4)cc3)c2cc1OC [SrcI1] (first compound 0.04 µM, partner dose 2 µM)",54%,78.9%,68.4%,88%,64.3%,89.1%,51.4%,60.7%,80%,70.7%
"CC(=O)O[C@@]12CO[C@@H]1C[C@H](O)[C@@]1(C)C(=O)[C@H](O)C3=C(C)[C@@H](OC(=O)[C@H](O)[C@@H](NC(=O)OC(C)(C)C)c4ccccc4)C[C@@](O)([C@@H](OC(=O)c4ccccc4)[C@H]21)C3(C)C [Docetaxel] + O=C1NC(=O)/C(=C/c2ccc(-c3ccc(F)cc3O)o2)S1 [AS252424] (first compound 0.0001 µM, partner dose 1 µM)",51.1%,35.5%,49.2%,56.8%,40%,46.6%,30.5%,62%,46.8%,39.7%
"Nc1nc(F)nc2c1ncn2[C@@H]1O[C@H](CO)[C@@H](O)[C@@H]1O [fludarabine] + COc1cc(Nc2ncc(F)c(Nc3ccc4c(n3)NC(=O)C(C)(C)O4)n2)cc(OC)c1OC [Tamatinib] (first compound 0.2 µM, partner dose 0.4 µM)",95.4%,47.3%,81.2%,118%,63.5%,9.03%,32%,66.7%,89.5%,94.3%
"CC(=O)O[C@@]12CO[C@@H]1C[C@H](O)[C@@]1(C)C(=O)[C@H](O)C3=C(C)[C@@H](OC(=O)[C@H](O)[C@@H](NC(=O)OC(C)(C)C)c4ccccc4)C[C@@](O)([C@@H](OC(=O)c4ccccc4)[C@H]21)C3(C)C [Docetaxel] + c1cc(-c2cnn3cc(-c4ccc(OCCN5CCCCC5)cc4)cnc23)ccn1 [Dorsomorphin] (first compound 0.0001 µM, partner dose 0.4 µM)",41.5%,39.8%,27.2%,62.5%,35.7%,32.1%,26.2%,69.2%,37.5%,43%
"Nc1ncn([C@H]2C[C@H](O)[C@@H](CO)O2)c(=O)n1 [decitabine] + O=C(Nc1ccccc1)c1cc([N+](=O)[O-])ccc1Cl [GW9662] (first compound 0.1 µM, partner dose 2 µM)",93.4%,94.5%,67.6%,84.1%,96%,109%,88.2%,109%,89.7%,65.1%
"CC(=O)c1c(C)c2cnc(Nc3ccc(N4CCNCC4)cn3)nc2n(C2CCCC2)c1=O [palbociclib] + C[C@@H]1CCN(C(=O)CC#N)C[C@@H]1N(C)c1ncnc2[nH]ccc12 [CP690550] (first compound 0.04 µM, partner dose 1 µM)",81.3%,71.4%,79.4%,78.5%,80.5%,82.2%,69.1%,63.4%,69.1%,78%
"Nc1ccn([C@@H]2O[C@H](CO)[C@@H](O)C2(F)F)c(=O)n1 [gemcitabine] + CN(NC(=O)CC(=O)NN(C)C(=S)c1ccccc1)C(=S)c1ccccc1 [STA4783] (first compound 0.0004 µM, partner dose 0.006 µM)",91.6%,86.7%,100%,106%,89.9%,97.9%,104%,100%,89.5%,104%
